± gives the standard deviation of the averaged measurements. The list shows a part of the results.
system: PfAP2-I AP2 domain 3 (GST-tagged); test: gcPBM binding intensity (ln(normalized median fluorescence intensity)); higher = stronger DNA binding
How it was run: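 GST-tagged P. falciparum DNA-binding domains, expressed in E. coli (about 25 μg on average), were applied for 1 h to an Agilent 4 × 180k array of primer-extended double-stranded 36-bp intergenic genomic probes plus negative controls. The binding buffer was 1× PBS with 1% milk, 0.2 mg/ml BSA, 0.5% salmon testes DNA and 0.03% Triton X-100. Bound protein was detected with Alexa488 anti-GST antibody and scanned at 488 nm. Binding intensity is the highest Masliner-normalised natural-log median intensity across replicate spots of either probe orientation.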

Row | Sequence | gcPBM binding intensity (ln)
1 | TATGAAGACACAAATACACACACTCAAAAAAAAAAA [CACACA_site2660] | 8.05 ± 0.78
2 | TTTATTTATAGAATTACACACATATATACACAAATG [CACACA_site7338] | 7.99 ± 0.43
3 | TTTATTTTTAAAGGCACACACATTTTTATTTTTAAA [CACACA_site2021] | 8.715 ± 0.021
4 | TTCTTTTTTTTCAGTTGTACTTATAAGAAAGAAAAA [XGTACX_site4028] | 7.84 ± 0.16
5 | AATATAAATATAGGAAATGTAGTTAAAAGGTGTATG [CACACA_negctrl_site1233] | 7.71 ± 0.74
6 | ATATATATAACAAAAGTGCATTAAGGGGATGCTATA | 11.5 ± 0.26
7 | TTATTATAAATAGGTAGTACATTTTGAACAAATATT [XGTACX_site8866] | 7.77 ± 0.34
8 | TATGCAAGGAACCACACACACACACGGAAATGTATA [CACACA_site6490] | 8.07 ± 0.73
9 | AATTATGGGGAAAAGACACACATATATATATATATA [CACACA_site2589] | 9.43 ± 0.38
10 | ATACGACAAATATAAAGTACAAGCTTGGTTTTTATA [XGTACX_site8103] | 7.62 ± 0.43
11 | ATTCTATAGAAACACACACACATGCATGCACCTATA [CACACA_site107] | 9.28 ± 0.29
12 | TTATATATATATGTATGTACTTATAACTTTTATTAG [XGTACX_site3190] | 7.66 ± 0.59
13 | ATAAGGTTACAACAAACACACAAAGGAATATACGCA [CACACA_site4090] | 7.91 ± 0.91
14 | AAGAAGAATAGGCGTTGTACGGAATGTAGTAGAGTT [XGTACX_site2430] | 8.4 ± 0.91
15 | TTAATATAAATATGATTTTTGATTCCTATACTATTT [CACACA_negctrl_site752] | 7.38 ± 0.52
16 | TTGTATTCATATGGTTGTACATATTAAAAGTTCTAA [XGTACX_site7255] | 7.73 ± 0.31
17 | ATAAATTTACTTGATTGTACATTTCTTAGTTGTATT [XGTACX_site3057] | 7.61 ± 0.54
18 | CACAAGAAAGTTCACACACACACATATATATATATA [CACACA_site6009] | 9.68 ± 0.48
19 | TATACTGATAAAAAAAGTACTAGAGTTTGTAAAAAT [XGTACX_site3934] | 7.93 ± 0.72
20 | AATTTTAATTTTTTGACACACATATAATATATATAT [CACACA_site3978] | 8.85 ± 0.11
21 | TTATATGTCAATTTGCGTACATACATAATTACATAT [XGTACX_site1546] | 8.11 ± 0.12
22 | TATGGGTATGTATTCACACATAACAAAAATATCAAA [CACACA_site5059] | 7.79 ± 0.67

Row | Sequence | gcPBM binding intensity (ln)
23 | ATATATATATATAACACACGCAAAAAAATTAAATAA [CACACA_site1400] | 9.31 ± 0.22
24 | CAAAGACACAAACACACACACACATACATACATACA [CACACA_site453] | 8.85 ± 0.59
25 | TTTTATATATTCAATTGTACATGTATTTTTTTTTTT [XGTACX_site3584] | 7.76 ± 0.46
26 | TATGCATTTATGCATTGTACTTTTATAGATTCCACC [XGTACX_site7121] | 7.84 ± 0.19
27 | AACAATATGGATGTATGTACACATATAGAACGTTAT [XGTACX_site7142] | 7.91 ± 0.72
28 | TATGTATATATATTAACACACAAAAAAAAAAAAAAA [CACACA_site1812] | 7.95 ± 0.62
29 | ATGAACGGAAAAATATATATAAATATATATATCATG [XGTACX_negctrl_site342] | 7.61 ± 0.33
30 | TTAAACTATACCAAAACACACATACAAAATATAAAA [CACACA_site5494] | 7.84 ± 0.6
31 | GAAATTTTATTACTTTTACACACCTATATATTATTC [CACACA_site9076] | 7.79 ± 0.76
32 | ATATTATATATACACGCACACACACTAATATATATA [CACACA_site9092] | 8.55 ± 0.59
33 | TACAAAAAAAAAGAACGTACAAAAAATTTCAAAAAT [XGTACX_site5860] | 7.96 ± 0.49
34 | TAAAATAACTCACAAAGTACAAAAATAAGCATATGA [XGTACX_site7046] | 7.76 ± 0.69
35 | TACATGATAGATCACACACACATATAAATATATATA [CACACA_site5562] | 7.93 ± 0.64
36 | ACATAAGACACAAATACACACAAAAATATATAACAA [CACACA_site4082] | 8.12 ± 0.28
37 | AAAATATATTAAGGCACACACATACAGATATATATA [CACACA_site5951] | 10 ± 0.48
38 | TACGTGAAATTATATACACACATAAATATGGGTGTA [CACACA_site5687] | 7.39 ± 0.28
39 | TACATACACAAATACACACACAAATACATACCCAAA [CACACA_site4550] | 8.05 ± 0.38
40 | TTTTTTCTTTTTTTTTTTTTTTTCTTTTTTTTTTTT [GTGCAC_negctrl_site196] | 7.94 ± 0.48
41 | GGTATACTCAAGTATACACACATATATATATATATA [CACACA_site5746] | 9.5 ± 0.58
42 | AAGAAAATGTATATATGTACATACAATCAAAAGAAG [XGTACX_site3454] | 8.14 ± 0.38
43 | GAATATTCAACATAATGTACAAGTATTCATTTCTTT [XGTACX_site7860] | 7.55 ± 0.49
44 | TAATAAACTTAAAAATGTACATATATTTATTATTAC [XGTACX_site4321] | 7.49 ± 0.45
